# Measured values as given in patent US10941114B2, “Small molecule lipid II inhibitors” (University Of Maryland, Baltimore, priority 2015, dated 2021).
# System: S. aureus USA300
# Assay: MRSA peritonitis model
# Conditions: S. aureus USA300 IP, n=5; for animals surviving the length of the experiment: treated at 2 hours and 8 hours post-infection, compounds at the MTD, vancomycin 50 mg/kg
smiles,measurement,setting,value
CN(CCC#N)c1ccc(/C=C/c2cc(-c3ccc(Br)cc3)cc(-c3ccc(Br)cc3)[n+]2C)cc1.[I-] [Compound 12c],animals surviving the length of the experiment,,all animals
CC(C)C[n+]1c(/C=C/c2ccc(N(C)C)cc2)cc(-c2ccc(Br)cc2)cc1-c1ccc(Br)cc1.[I-] [EL-1],survival,treated at 2 hours and 8 hours post-infection at the MTD,80%
"CN[C@H](CC(C)C)C(=O)N[C@H]1C(=O)N[C@@H](CC(N)=O)C(=O)N[C@H]2C(=O)N[C@H]3C(=O)N[C@H](C(=O)N[C@H](C(=O)O)c4cc(O)cc(O)c4-c4cc3ccc4O)[C@H](O)c3ccc(c(Cl)c3)Oc3cc2cc(c3O[C@@H]2O[C@H](CO)[C@@H](O)[C@H](O)[C@H]2O[C@H]2C[C@](C)(N)[C@H](O)[C@H](C)O2)Oc2ccc(cc2Cl)[C@H]1O [vancomycin, reference compound]",animals surviving the length of the experiment,,all animals
